Experimental data published in paper PMC9911399, “Two distinct binding modes provide the RNA-binding protein RbFox with extraordinary sequence specificity”.
Substitutions are numbered along the chain they refer to; changes in the protein carry UniProt numbers. Some of the results follow.

T1: RBFOX1 RRM RbFoxmut (Fox-RRM*) (Homo sapiens, UniProt Q9NWB1 109-208, R118D;E147R;N151S;E152T)
T1 sequence: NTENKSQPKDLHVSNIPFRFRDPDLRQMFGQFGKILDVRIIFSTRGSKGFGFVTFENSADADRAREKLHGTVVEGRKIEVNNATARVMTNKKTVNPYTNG

B1: GCCUAGC (DNA:RNA)
RNA: GGGAGACCGGAAUUCAGAUUGUCCGCCUAGCUUAAAUCCCGUCGUAGCCACCA
DNA 1: CAATCTGAATTCCGGTCTCCC
DNA 2: TGGTGGCTACGACGGGATT
B2: CCGAGUG (DNA:RNA)
RNA: B1 RNA with G25C, C27G, U28A, A29G, G30U, C31G
DNA 1: CAATCTGAATTCCGGTCTCCC
DNA 2: TGGTGGCTACGACGGGATT
B3: CUGUGCU (DNA:RNA)
RNA: B1 RNA with G25C, C26U, C27G, A29G, G30C, C31U
DNA 1: CAATCTGAATTCCGGTCTCCC
DNA 2: TGGTGGCTACGACGGGATT
B4: UCUACAA (DNA:RNA)
RNA: B1 RNA with G25U, C27U, U28A, A29C, G30A, C31A
DNA 1: CAATCTGAATTCCGGTCTCCC
DNA 2: TGGTGGCTACGACGGGATT
B5: AGCUGCG (DNA:RNA)
RNA: B1 RNA with G25A, C26G, A29G, G30C, C31G
DNA 1: CAATCTGAATTCCGGTCTCCC
DNA 2: TGGTGGCTACGACGGGATT
B6: GCCGAGC (DNA:RNA)
RNA: B1 RNA with U28G
DNA 1: CAATCTGAATTCCGGTCTCCC
DNA 2: TGGTGGCTACGACGGGATT
B7: GCCACUA (DNA:RNA)
RNA: B1 RNA with U28A, A29C, G30U, C31A
DNA 1: CAATCTGAATTCCGGTCTCCC
DNA 2: TGGTGGCTACGACGGGATT
B8: AGUGCCG (DNA:RNA)
RNA: GGGAGACCGGAAUUCAGAUUGUCCAGUGCCGUUAAAUCCCGUCGUAGCCACCA
DNA 1: CAATCTGAATTCCGGTCTCCC
DNA 2: TGGTGGCTACGACGGGATT
B9: AGAUCAA (DNA:RNA)
RNA: B8 RNA with U27A, G28U, C30A, G31A
DNA 1: CAATCTGAATTCCGGTCTCCC
DNA 2: TGGTGGCTACGACGGGATT
B10: GUCCUGG (DNA:RNA)
RNA: B1 RNA with C26U, U28C, A29U, C31G
DNA 1: CAATCTGAATTCCGGTCTCCC
DNA 2: TGGTGGCTACGACGGGATT
B11: ACGUCUU (DNA:RNA)
RNA: B8 RNA with G26C, U27G, G28U, C30U, G31U
DNA 1: CAATCTGAATTCCGGTCTCCC
DNA 2: TGGTGGCTACGACGGGATT
B12: GGAAGUG (DNA:RNA)
RNA: B8 RNA with A25G, U27A, G28A, C29G, C30U
DNA 1: CAATCTGAATTCCGGTCTCCC
DNA 2: TGGTGGCTACGACGGGATT
B13: UAGAUUU (DNA:RNA)
RNA: GGGAGACCGGAAUUCAGAUUGUCCUAGAUUUUUAAAUCCCGUCGUAGCCACCA
DNA 1: CAATCTGAATTCCGGTCTCCC
DNA 2: TGGTGGCTACGACGGGATT
B14: GCACAAC (DNA:RNA)
RNA: B1 RNA with C27A, U28C, G30A
DNA 1: CAATCTGAATTCCGGTCTCCC
DNA 2: TGGTGGCTACGACGGGATT
B15: UAAAAAU (DNA:RNA)
RNA: B13 RNA with G27A, U29A, U30A
DNA 1: CAATCTGAATTCCGGTCTCCC
DNA 2: TGGTGGCTACGACGGGATT
B16: AAACCCU (DNA:RNA)
RNA: B8 RNA with G26A, U27A, G28C, G31U
DNA 1: CAATCTGAATTCCGGTCTCCC
DNA 2: TGGTGGCTACGACGGGATT
B17: CCAGCAG (DNA:RNA)
RNA: B8 RNA with A25C, G26C, U27A, C30A
DNA 1: CAATCTGAATTCCGGTCTCCC
DNA 2: TGGTGGCTACGACGGGATT
B18: AGCACAA (DNA:RNA)
RNA: B8 RNA with U27C, G28A, C30A, G31A
DNA 1: CAATCTGAATTCCGGTCTCCC
DNA 2: TGGTGGCTACGACGGGATT
B19: UGAAGAG (DNA:RNA)
RNA: B8 RNA with A25U, U27A, G28A, C29G, C30A
DNA 1: CAATCTGAATTCCGGTCTCCC
DNA 2: TGGTGGCTACGACGGGATT
B20: UAGAACC (DNA:RNA)
RNA: B13 RNA with U29A, U30C, U31C
DNA 1: CAATCTGAATTCCGGTCTCCC
DNA 2: TGGTGGCTACGACGGGATT
B21: UAUGUGU (DNA:RNA)
RNA: B13 RNA with G27U, A28G, U30G
DNA 1: CAATCTGAATTCCGGTCTCCC
DNA 2: TGGTGGCTACGACGGGATT
B22: CACGACG (DNA:RNA)
RNA: B8 RNA with A25C, G26A, U27C, C29A
DNA 1: CAATCTGAATTCCGGTCTCCC
DNA 2: TGGTGGCTACGACGGGATT
B23: CACAGUU (DNA:RNA)
RNA: B13 RNA with U25C, G27C, U29G
DNA 1: CAATCTGAATTCCGGTCTCCC
DNA 2: TGGTGGCTACGACGGGATT
B24: ACCGCGU (DNA:RNA)
RNA: B8 RNA with G26C, U27C, C30G, G31U
DNA 1: CAATCTGAATTCCGGTCTCCC
DNA 2: TGGTGGCTACGACGGGATT
B25: CUAUUCC (DNA:RNA)
RNA: B1 RNA with G25C, C26U, C27A, A29U, G30C
DNA 1: CAATCTGAATTCCGGTCTCCC
DNA 2: TGGTGGCTACGACGGGATT
B26: GGGGACA (DNA:RNA)
RNA: B8 RNA with A25G, U27G, C29A, G31A
DNA 1: CAATCTGAATTCCGGTCTCCC
DNA 2: TGGTGGCTACGACGGGATT
B27: GCCCGUA (DNA:RNA)
RNA: B1 RNA with U28C, A29G, G30U, C31A
DNA 1: CAATCTGAATTCCGGTCTCCC
DNA 2: TGGTGGCTACGACGGGATT
B28: CUUAAGG (DNA:RNA)
RNA: B8 RNA with A25C, G26U, G28A, C29A, C30G
DNA 1: CAATCTGAATTCCGGTCTCCC
DNA 2: TGGTGGCTACGACGGGATT
B29: UCGUGAC (DNA:RNA)
RNA: B1 RNA with G25U, C27G, A29G, G30A
DNA 1: CAATCTGAATTCCGGTCTCCC
DNA 2: TGGTGGCTACGACGGGATT
B30: ACCGAAU (DNA:RNA)
RNA: B1 RNA with G25A, U28G, G30A, C31U
DNA 1: CAATCTGAATTCCGGTCTCCC
DNA 2: TGGTGGCTACGACGGGATT
B31: AACGUGG (DNA:RNA)
RNA: B8 RNA with G26A, U27C, C29U, C30G
DNA 1: CAATCTGAATTCCGGTCTCCC
DNA 2: TGGTGGCTACGACGGGATT

What follows are binders tested against T1, RBFOX1 RRM RbFoxmut (Fox-RRM*) (assay: EMSA; HiTS-Eq, 1 nM pool, 10 min; buffer printed only for the single-RNA assays: 10 mM Tris pH 7.5, 150 mM NaCl, 3.4 mM EDTA, 0.001% NP-40, 30 C). Details: tags: His6 N-terminal (pET28a); label: 5' 32P.
Procedure, shortened: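 Relative association constants, normalised to the cognate motif, were derived by comparing read counts of each RNA species with those of the control reaction. The RNA sequenced was the free fraction, separated by 8% native PAGE after a 10 min equilibration in 50 µL of 1 nM 5′-radiolabelled RNA (7 randomized nucleotides) with increasing concentrations of purified wild-type or mutant RbFox RRM.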

Binder | binding signal
B1 | 0.106 KA relative to UGCAUGU
B2 | 0.167 KA relative to UGCAUGU
B3 | 0.118 KA relative to UGCAUGU
B4 | 0.0819 KA relative to UGCAUGU
B5 | 0.132 KA relative to UGCAUGU
B6 | 0.104 KA relative to UGCAUGU
B7 | 0.0792 KA relative to UGCAUGU
B8 | 0.142 KA relative to UGCAUGU
B9 | 0.0835 KA relative to UGCAUGU
B10 | 0.075 KA relative to UGCAUGU
B11 | 0.0723 KA relative to UGCAUGU
B12 | 0.122 KA relative to UGCAUGU
B13 | 0.107 KA relative to UGCAUGU
B14 | 0.0413 KA relative to UGCAUGU
B15 | 0.0612 KA relative to UGCAUGU
B16 | 0.0568 KA relative to UGCAUGU

Binder | binding signal
B17 | 0.113 KA relative to UGCAUGU
B18 | 0.0502 KA relative to UGCAUGU
B19 | 0.0879 KA relative to UGCAUGU
B20 | 0.0522 KA relative to UGCAUGU
B21 | 0.168 KA relative to UGCAUGU
B22 | 0.0885 KA relative to UGCAUGU
B23 | 0.0725 KA relative to UGCAUGU
B24 | 0.0952 KA relative to UGCAUGU
B25 | 0.0747 KA relative to UGCAUGU
B26 | 0.066 KA relative to UGCAUGU
B27 | 0.101 KA relative to UGCAUGU
B28 | 0.0754 KA relative to UGCAUGU
B29 | 0.0717 KA relative to UGCAUGU
B30 | 0.0844 KA relative to UGCAUGU
B31 | 0.0982 KA relative to UGCAUGU
